Reference: article PMC11302665 (Microbiology Spectrum, 2024)

Target: T1, L-cysteine desulfurase IscS (E. coli, UniProt P0A6B7 1-404, PLP (pyridoxal phosphate) cofactor)
T1 construct: L-cysteine desulfurase IscS of Escherichia coli; Predicted mass of the dimer with PLP printed as 90,642 Da; also called (IscS)2; dimeric IscS; source: E. coli BL21(DE3), purified following previously described procedures
T1 sequence (looked up): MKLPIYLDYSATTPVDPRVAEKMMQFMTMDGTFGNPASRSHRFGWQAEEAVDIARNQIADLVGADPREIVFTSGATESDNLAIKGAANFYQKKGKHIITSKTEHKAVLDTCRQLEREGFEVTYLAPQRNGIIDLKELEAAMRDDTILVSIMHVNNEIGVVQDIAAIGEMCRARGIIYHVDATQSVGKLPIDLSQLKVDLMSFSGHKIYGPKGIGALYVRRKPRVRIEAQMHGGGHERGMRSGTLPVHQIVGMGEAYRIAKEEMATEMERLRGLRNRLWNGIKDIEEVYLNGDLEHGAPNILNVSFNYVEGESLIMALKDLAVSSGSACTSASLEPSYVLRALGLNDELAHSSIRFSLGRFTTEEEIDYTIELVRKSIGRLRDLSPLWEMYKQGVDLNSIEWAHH
Assay: SEC; analytical gel filtration on Superdex 200 in 50 mM Tris-HCl, 200 mM NaCl, pH 8.0; 30 µM IscS with 90 µM IscU or TusA, 20 min at 30°C; complex fractions pooled, concentrated, incubated with the third protein (1:3 ratio) and run again; fractions on 17% SDS-PAGE
Details: both partners purified

B1: IscU (natural protein, E. coli, UniProt P0ACD4 1-128, looked up)
chain: MAYSEKVIDHYENPRNVGSFDNNDENVGSGMVGAPACGDVMKLQIKVNDEGIIEDARFKTYGCGSAIASSSLVTEWVKGKSLDEAQAIKNTDIAEELELPPVKIHCSILAEDAIKAAIADYKSKREAK
notes: Iron-sulfur cluster assembly scaffold protein IscU of Escherichia coli; also called scaffold protein IscU; source: E. coli BL21(DE3), purified following previously described procedures; (His)6x-tag cleaved with thrombin and removed on a Ni2+-agarose column
binding result: binds
